Screen size: about 310,000 compounds; about 2,200 (0.71%) showed an effect of 50% or more. The effect is printed as a negative number. The list shows a part of the results.

The target of the assay is human ether-à-go-go-related gene (hERG) potassium channel (human, UniProt Q12809). In words: primary screen, population patch clamp on CHO cells stably expressing hERG.
Chain of human ether-à-go-go-related gene (hERG) potassium channel (Q12809 whole entry, looked up): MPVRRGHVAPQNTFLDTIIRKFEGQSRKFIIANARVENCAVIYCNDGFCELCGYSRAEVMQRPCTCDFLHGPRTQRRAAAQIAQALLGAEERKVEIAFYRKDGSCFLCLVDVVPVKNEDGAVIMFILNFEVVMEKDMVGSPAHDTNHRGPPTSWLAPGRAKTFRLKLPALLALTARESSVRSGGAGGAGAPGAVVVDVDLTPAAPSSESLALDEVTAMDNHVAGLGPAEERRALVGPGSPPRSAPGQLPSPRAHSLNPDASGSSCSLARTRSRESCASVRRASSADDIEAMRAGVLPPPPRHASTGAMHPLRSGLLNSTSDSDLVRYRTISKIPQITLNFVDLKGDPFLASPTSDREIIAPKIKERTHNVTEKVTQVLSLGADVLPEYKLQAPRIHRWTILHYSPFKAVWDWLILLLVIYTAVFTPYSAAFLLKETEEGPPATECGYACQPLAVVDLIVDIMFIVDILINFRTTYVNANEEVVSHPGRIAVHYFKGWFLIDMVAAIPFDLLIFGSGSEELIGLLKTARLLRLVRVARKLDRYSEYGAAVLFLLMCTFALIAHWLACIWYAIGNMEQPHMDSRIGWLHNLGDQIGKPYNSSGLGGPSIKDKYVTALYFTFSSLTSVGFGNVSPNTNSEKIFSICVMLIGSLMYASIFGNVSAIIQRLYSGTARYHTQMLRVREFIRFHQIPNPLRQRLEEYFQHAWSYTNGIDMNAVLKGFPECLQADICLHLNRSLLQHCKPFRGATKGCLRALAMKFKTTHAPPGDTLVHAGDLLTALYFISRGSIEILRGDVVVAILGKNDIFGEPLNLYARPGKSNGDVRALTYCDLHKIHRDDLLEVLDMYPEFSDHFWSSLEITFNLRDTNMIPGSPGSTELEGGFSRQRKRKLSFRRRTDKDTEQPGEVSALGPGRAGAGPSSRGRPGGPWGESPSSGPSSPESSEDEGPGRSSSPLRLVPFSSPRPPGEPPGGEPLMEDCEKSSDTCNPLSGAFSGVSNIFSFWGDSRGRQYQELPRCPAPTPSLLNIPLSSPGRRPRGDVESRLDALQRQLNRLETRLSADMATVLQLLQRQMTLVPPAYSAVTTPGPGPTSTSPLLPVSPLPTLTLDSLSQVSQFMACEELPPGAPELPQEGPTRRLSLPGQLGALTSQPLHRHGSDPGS
As to `CC(C)OC(=O)/C(=C\C=C\c1ccccc1)NC(=O)c1ccccc1`, the “hERG current change (%, negative = inhibition) at 1uM” value was found to be 0.793%.
Take `CCn1c(CC(=O)Nc2cccc(OC)c2)nnc1SCC(=O)Nc1nccs1`: the “hERG current change (%, negative = inhibition) at 1uM” value is reported as -12.4%.
As to `COc1ccc(O)c(CN2CCC(n3nccc3NC(=O)C3CCCC3)CC2)c1`, the “hERG current change (%, negative = inhibition) at 1uM” value was -28.4%.
Turning to `CCOC(=O)C(=CNc1cc(C)ccn1)C(=O)OCC`, the “hERG current change (%, negative = inhibition) at 1uM” value amounted to 6.18%.
With `COc1ccc(-c2c3c(nc4sc(C(=O)Nc5ccccc5)c(N)c24)CCC3)cc1`, the “hERG current change (%, negative = inhibition) at 1uM” value is given as 8.36%.
`O=C(NCC(c1ccco1)N1CCOCC1)c1cccc([N+](=O)[O-])c1` (stereo not drawn): the “hERG current change (%, negative = inhibition) at 1uM” value is reported as -2.1%.
Take `COc1cc(/C=C(\C#N)c2ccccn2)ccc1OCc1ccccc1`: the “hERG current change (%, negative = inhibition) at 1uM” value is -2.19%.
For the molecule `CCCC1C(C#N)=C(N)Oc2cc(C)n(C)c(=O)c21` (stereo not drawn), the “hERG current change (%, negative = inhibition) at 1uM” value was found to be 15.4%.
For `c1ccc(-c2ccc3c(c2)NCCN3)cc1`, the “hERG current change (%, negative = inhibition) at 1uM” value is on record as 11.5%.
The value for `CC(C)(C)c1ccc(OCC(=O)NNC(=O)CCc2ccccc2)cc1` was 6.66%; that for `NC(=O)c1ccc(Cn2c(C(=O)c3ccc(Cl)cc3)c3ccccc3[n+]2[O-])cc1` was 0.226%.
The value for `CCCCNC(=O)Nc1cc(C(F)(F)F)c[nH]c1=O` was 3.81%.
The same measure for `CN(CC(=O)Nc1ccccc1Cl)C(=O)COC(=O)c1nc(Cl)c(Cl)c(Cl)c1Cl`: 9.88%; for `COc1ccc(CCNC(=O)c2ccc(N(C)S(=O)(=O)c3ccc(C)cc3)cc2)cc1OC`: 10.3%.
As to `CCn1c(NC(=O)Nc2cccc(C)c2C)cc2sccc21`, the “hERG current change (%, negative = inhibition) at 1uM” value worked out at 15.9%.
In the case of `CSc1nsc(SCC(=O)Nc2nc3ccccc3s2)n1`, the “hERG current change (%, negative = inhibition) at 1uM” value is reported as 5.45%.
`CCN(CC(=O)Nc1ccc(C(C)=O)cc1)CC(=O)Nc1cccc(OC)c1`: the “hERG current change (%, negative = inhibition) at 1uM” value was -7.67%.
Regarding `CC(=O)Nc1ccc(S(=O)(=O)NCC2CCC(C(=O)N3CCCCCC3)CC2)cc1` (stereo not drawn), the “hERG current change (%, negative = inhibition) at 1uM” value is given as 10.1%.
For the molecule `COc1ccc(-c2nnc(NC(=O)c3ccc([N+](=O)[O-])o3)o2)c(OC)c1`, the “hERG current change (%, negative = inhibition) at 1uM” value stood at 15.7%.
`CCOC(=O)C1C(=O)NC(C)C1c1ccccc1` (stereo not drawn): the “hERG current change (%, negative = inhibition) at 1uM” value came to 4.56%.
Regarding `O=S(=O)(c1ccc(S(=O)(=O)N2CCN3CCCC3C2)cc1)N1CCCC1` (stereo not drawn), the “hERG current change (%, negative = inhibition) at 1uM” value was 10.5%.
The value for `CCCOc1cc(C)nc(-c2ccccc2O)n1` was 16%; that for `Cc1cccc(C(=O)NC(=S)Nc2ccc(S(=O)(=O)N(C)c3ccccc3)cc2)c1` was 7.62%; that for `CCC(C)[C@H](NC(=O)N1CC(=O)Nc2ccccc21)C(=O)NC(C)CCc1ccccc1` (stereo partly drawn) was 6.37%.
In the case of `COCCCNc1nc2c(c(=O)[nH]c(=O)n2C)n1CCCc1ccccc1`, the “hERG current change (%, negative = inhibition) at 1uM” value is on record as 15.3%.
The same measure for `COc1ccc(Nc2nnc(SCc3cn4c(C)cccc4n3)s2)cc1`: 6.12%; for `COc1cccc(SCc2noc(C(=O)NC(C)C)c2C(=O)NC(C)C)c1`: 15.1%; for `O=C(O)c1ccc(S(=O)(=O)NCc2ccc3c(c2)OCO3)cc1`: 11.3%.
As to `CC(C)c1nc2cc(C(=O)NC(C)c3cnn(C)c3)ccc2o1` (stereo not drawn), the “hERG current change (%, negative = inhibition) at 1uM” value was determined as 6.24%.
As for `Cc1cccc(C)c1NC(=O)CNC(=O)C1CCCN(C(=O)c2ccc(Cl)cc2)C1` (stereo not drawn), the “hERG current change (%, negative = inhibition) at 1uM” value worked out at 14%.
For the molecule `CCc1ccc(N(CC(=O)NC(C)(C)C)C(=O)CNC(=O)c2cccs2)cc1`, the “hERG current change (%, negative = inhibition) at 1uM” value is 6.98%.
For the molecule `CCN1C2OC3OC4C(OC3OC2N(CC)S1(=O)=O)N(CC)S(=O)(=O)N4CC` (stereo not drawn), the “hERG current change (%, negative = inhibition) at 1uM” value was determined as 10.2%.
The same measure for `O=C(O)CCn1c(=S)n(CCC(=O)O)c2ccccc21`: 6.37%; for `CCC(C)NC(=O)CSc1nc2cc(S(=O)(=O)N3CCOCC3)ccc2n1CC` (stereo not drawn): 12.4%; for `CCCCOC(=O)C1CCC[C@@H](C)N1.Cl` (stereo partly drawn): 2.38%.
As to `Cc1[nH]c(=S)sc1Cc1ccc(F)cc1`, the “hERG current change (%, negative = inhibition) at 1uM” value is given as 11.4%.
In the case of `COc1cccc(/C=N/N2CCN(c3ccc(Cl)cc3)CC2)c1OC`, the “hERG current change (%, negative = inhibition) at 1uM” value is on record as 11.7%.
For the molecule `CCN(CC)C(=O)CSc1nc2sc3c(c2c(=O)n1CCOC)CCC3`, the “hERG current change (%, negative = inhibition) at 1uM” value is on record as 6.09%.
For `Cc1nccn1CCC(=O)Nc1ccc(Cl)cc1`, the “hERG current change (%, negative = inhibition) at 1uM” value was found to be 2.98%.
`CN(C)CCCNC(=O)N1c2ccccc2Sc2ccccc21`: the “hERG current change (%, negative = inhibition) at 1uM” value came out at 11.1%.
The same measure for `O=C(NCc1ccc2c(c1)OCO2)C12CC3CC(CC(C3)C1)C2`: -0.706%; for `CS(=O)(=O)N(CC(=O)Nc1ccc(CC#N)cc1)c1ccc(C23CC4CC(CC(C4)C2)C3)cc1`: 5.2%; for `Cc1ccc(N2CC(C(=O)Nc3nnc(SCCN4CCOCC4)s3)CC2=O)cc1C` (stereo not drawn): 13.1%.
The same measure for `CN(C)Cc1nc2ccccc2c(=O)n1Cc1nc(-c2cccc([N+](=O)[O-])c2)cs1`: -4.23%.
The value for `CCOC(=O)N1CCN(C(=O)c2ccc3nc(N4CCCCC4)sc3c2)CC1` was 8.47%.
For the molecule `O=C(Cc1cccs1)NNC(=O)c1ccccc1Cl`, the “hERG current change (%, negative = inhibition) at 1uM” value was 4.95%.
Turning to `CCOc1cc(C2C(C(=O)c3ccco3)=C(O)C(=O)N2CCc2ccccc2)ccc1O` (stereo not drawn), the “hERG current change (%, negative = inhibition) at 1uM” value stood at 8.56%.
With `Nc1nc(F)nc2c1ncn2[C@@H]1O[C@H](CO)[C@@H](O)[C@H]1O`, the “hERG current change (%, negative = inhibition) at 1uM” value was found to be 20.3%.
Take `CCOC(=O)NN1C(=O)c2ccccc2NC1c1ccc(N(C)C)cc1` (stereo not drawn): the “hERG current change (%, negative = inhibition) at 1uM” value was 7.21%.
Turning to `CC(/C=N/N1CCN(c2ccc(C)cc2)CC1)=C\c1ccccc1`, the “hERG current change (%, negative = inhibition) at 1uM” value was 6.8%.
Take `O=C(NCc1ccccc1Cl)c1cnn2cccnc12`: the “hERG current change (%, negative = inhibition) at 1uM” value amounted to 5.26%.
As to `COc1ccc(CCC(=O)NCCOc2ccc(Cl)cc2)cc1`, the “hERG current change (%, negative = inhibition) at 1uM” value is 0.875%.
The same measure for `O=C(CCCc1nc(-c2ccccc2Cl)no1)N1CCOCC1`: 12.3%.
Take `Cc1ccc(S(=O)(=O)ON2C(=O)c3ccccc3C2=O)c(C)c1`: the “hERG current change (%, negative = inhibition) at 1uM” value is recorded as -2.72%.
As for `COc1ccc(Cc2nc3ccccc3n2CC(=O)N/N=C/c2ccc(O)cc2)cc1OC`, the “hERG current change (%, negative = inhibition) at 1uM” value is recorded as -3.24%.
With `Cc1cc(OCC(=O)NN2C(=O)c3ccccc3C2=O)ccc1Cl`, the “hERG current change (%, negative = inhibition) at 1uM” value is recorded as 9.91%.
`CCc1noc(C)c1C(=O)N1CCN(S(=O)(=O)c2cc(C)ccc2C)CC1`: the “hERG current change (%, negative = inhibition) at 1uM” value came to 5.4%.

(Values after paper PMC4336329 (PLoS ONE, 2015).)
